Results on 56 compounds are retold here after paper PMC4336329 (PLoS ONE, 2015).

Out of some 310,000 compounds screened, about 14,000 (4.5%) showed an effect of 50% or more. Effects have a minus sign here. The list shows a part of the results.
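Further: peak tail current of the secondary pulse compared with the same well before compound.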

human ether-à-go-go-related gene (hERG) potassium channel, sequence (Q12809 whole entry, looked up): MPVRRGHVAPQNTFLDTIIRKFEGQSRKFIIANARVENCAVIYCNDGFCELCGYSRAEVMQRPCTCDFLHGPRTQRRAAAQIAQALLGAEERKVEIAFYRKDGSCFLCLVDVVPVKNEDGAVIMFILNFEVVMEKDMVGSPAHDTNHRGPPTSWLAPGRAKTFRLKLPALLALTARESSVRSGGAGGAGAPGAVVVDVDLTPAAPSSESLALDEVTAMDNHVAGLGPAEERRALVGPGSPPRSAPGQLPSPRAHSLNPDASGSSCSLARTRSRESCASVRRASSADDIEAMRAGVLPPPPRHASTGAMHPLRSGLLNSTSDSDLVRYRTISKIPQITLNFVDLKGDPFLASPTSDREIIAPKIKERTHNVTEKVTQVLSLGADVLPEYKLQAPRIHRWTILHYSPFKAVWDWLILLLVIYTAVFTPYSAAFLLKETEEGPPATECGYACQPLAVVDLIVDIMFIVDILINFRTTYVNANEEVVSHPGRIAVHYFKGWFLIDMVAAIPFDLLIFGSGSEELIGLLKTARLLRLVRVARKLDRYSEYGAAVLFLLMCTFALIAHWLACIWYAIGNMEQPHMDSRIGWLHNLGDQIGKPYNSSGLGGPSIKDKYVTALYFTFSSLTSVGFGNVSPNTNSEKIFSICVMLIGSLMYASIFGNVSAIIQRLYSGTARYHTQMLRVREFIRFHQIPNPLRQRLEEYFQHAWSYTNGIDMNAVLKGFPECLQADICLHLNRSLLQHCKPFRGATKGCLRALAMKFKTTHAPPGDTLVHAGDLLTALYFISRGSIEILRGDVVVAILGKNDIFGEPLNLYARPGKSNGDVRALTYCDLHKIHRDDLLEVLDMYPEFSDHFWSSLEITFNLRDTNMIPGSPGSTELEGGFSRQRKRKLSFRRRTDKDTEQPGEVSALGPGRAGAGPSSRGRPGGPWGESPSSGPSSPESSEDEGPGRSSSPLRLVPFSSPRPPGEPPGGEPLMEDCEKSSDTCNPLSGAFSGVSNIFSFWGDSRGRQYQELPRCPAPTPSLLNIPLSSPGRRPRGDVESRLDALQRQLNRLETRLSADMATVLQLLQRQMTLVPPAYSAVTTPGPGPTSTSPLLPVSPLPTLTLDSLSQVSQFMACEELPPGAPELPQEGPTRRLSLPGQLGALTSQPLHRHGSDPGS

The test addresses human ether-à-go-go-related gene (hERG) potassium channel (human, UniProt Q12809). As to the kind of experiment: primary screen, population patch clamp on CHO cells stably expressing hERG.
On to `C=CCOC(=O)C1=C(C)NC(SCC(=O)Nc2ccc(C)c(Cl)c2)=C(C#N)C1c1ccco1` (centres unmarked), for which the “hERG current change (%, negative = inhibition) at 10uM” value is reported as 16.1%.
The same measure for `CC(C)c1ccc(-c2csc(NC(=O)c3cccs3)c2C(=O)O)cc1`: 18.3%.
As for `Cc1ccn2c(=O)nc(SCC(=O)NCc3ccc4c(c3)OCO4)nc2c1`, the “hERG current change (%, negative = inhibition) at 10uM” value is -23.9%.
As to `O=C(/C=C/c1cccnc1)c1ccc(F)c(F)c1`, the “hERG current change (%, negative = inhibition) at 10uM” value is given as -21.7%.
Take `CC(C)OC(=O)/C(=C/c1ccco1)c1ccccc1`: the “hERG current change (%, negative = inhibition) at 10uM” value stood at 2.66%.
`Cc1cc(NC(=O)c2cc3cccc([N+](=O)[O-])c3[nH]2)ccc1F`: the “hERG current change (%, negative = inhibition) at 10uM” value worked out at 20.6%.
Take `CN(C(=S)NC(=O)c1ccc(Br)o1)c1ccccc1`: the “hERG current change (%, negative = inhibition) at 10uM” value is reported as -2.61%.
As to `O=c1cc(O)n(-c2ccccc2F)c(=S)[nH]1`, the “hERG current change (%, negative = inhibition) at 10uM” value is 5%.
Consider `COc1cccc(-n2c(SCC(=O)O)nnc2-c2cccnc2)c1`, for which the “hERG current change (%, negative = inhibition) at 10uM” value is recorded as -1.69%.
Regarding `CSc1ncccc1C(=O)N1CCN(S(=O)(=O)c2ccc3ccccc3c2)CC1`, the “hERG current change (%, negative = inhibition) at 10uM” value is listed as -34.9%.
The same measure for `COCCN(C(=O)CCC(=O)Nc1ccccn1)C(C(=O)NCCC(C)C)c1ccc(C)cc1` (centres unmarked): -19.7%.
Take `CCCC(C)NC(=O)c1c2c(nc3ccccc13)CCC2` (centres unmarked): the “hERG current change (%, negative = inhibition) at 10uM” value came out at 24.3%.
As for `Oc1ccc(Br)cc1-c1ccnn1-c1ccccc1`, the “hERG current change (%, negative = inhibition) at 10uM” value is reported as 12.6%.
On to `Cc1nc2ccccc2c(-c2ccccc2)c1C(=O)c1ccccc1`, for which the “hERG current change (%, negative = inhibition) at 10uM” value turned out to be 0.392%.
Take `O=C(O)CCCCn1c(SCc2cc(=O)n3cc(Cl)ccc3n2)nc2ccsc2c1=O`: the “hERG current change (%, negative = inhibition) at 10uM” value is 2.87%.
Take `Cc1cc(-c2ccccc2)c(C#N)c(N)n1`: the “hERG current change (%, negative = inhibition) at 10uM” value was 12.1%.
With `CCN1C(=O)[C@H]2[C@@H](c3ccc(-c4ccc(OC)cc4)c(OC)c3)N3CCCC[C@@]3(C(=O)OC)[C@H]2C1=O.O=C(O)C(F)(F)F`, the “hERG current change (%, negative = inhibition) at 10uM” value was found to be 1.18%.
Turning to `O=C(O)c1ccc(CSc2nnc(SCc3ccccc3)s2)cc1`, the “hERG current change (%, negative = inhibition) at 10uM” value was -31.7%.
As to `Cc1noc(C)c1S(=O)(=O)N1CCCC(C(=O)c2cccc(OC(C)C)c2)C1` (centres unmarked), the “hERG current change (%, negative = inhibition) at 10uM” value worked out at 19.6%.
Take `O=C(CN1CCCCCC1)N/N=C/c1ccc(Cl)c(Cl)c1`: the “hERG current change (%, negative = inhibition) at 10uM” value is reported as -60%.
For `COCCN(C(=O)CCC(=O)Nc1cc(C)on1)C(C(=O)NC1CCCC1)c1ccc(C(C)C)cc1` (centres unmarked), the “hERG current change (%, negative = inhibition) at 10uM” value is -28.3%.
`CCOC(=O)c1ccc(NC2Nc3cc(C)nn3S2)cc1` (centres unmarked): the “hERG current change (%, negative = inhibition) at 10uM” value worked out at 10.8%.
`COc1cccc(CN(C)C(=O)c2cc(COc3ccc4ncccc4c3)on2)c1`: the “hERG current change (%, negative = inhibition) at 10uM” value is on record as -14.8%.
In the case of `O=C(O)CSC1=NC(=Nc2cccc(Cl)c2)C2(CCCCC2)N1c1ccccc1`, the “hERG current change (%, negative = inhibition) at 10uM” value is recorded as 35.9%.
The same measure for `CCOc1ccc2nc(SCC(=O)Nc3ccc4c(c3)OCCO4)[nH]c2c1`: 6.42%; for `COC(=O)C1=C(C)N(Cc2ccccc2)C(=O)N[C@H]1c1ccc(Br)cc1`: -10.9%.
Consider `O=C(NCC1CCCN1S(=O)(=O)c1ccccc1)C(=O)NC1CC1` (centres unmarked), for which the “hERG current change (%, negative = inhibition) at 10uM” value is -0.234%.
Consider `COc1ccccc1CN1CC(C(=O)NCCN2CCOC2=O)CCC1=O` (centres unmarked), for which the “hERG current change (%, negative = inhibition) at 10uM” value is listed as 5.78%.
Under `Cc1ccc(C)c(NC(=O)C2CCN(C(=O)c3cccs3)CC2)c1` stands -3.44%; under `COc1ccc(NC(=O)CSc2nnc(C)s2)cc1S(=O)(=O)N1CCOCC1`, -0.484%.
As to `COc1ccc(Nc2ccc(N3C(=O)CCC3=O)cc2[N+](=O)[O-])cn1`, the “hERG current change (%, negative = inhibition) at 10uM” value was -0.325%.
Take `Fc1ccc(CSc2ccc(-c3ccc4c(c3)OCO4)nn2)cc1`: the “hERG current change (%, negative = inhibition) at 10uM” value was determined as 3.48%.
For the compound `CCC1=C(OC(=O)N(CC)CC)N2C(=O)OC(=NCCOC)[C@]2(Cc2ccccc2)[C@H]2C1=CC[C@H]1C(=O)N(CC)C(=O)[C@H]12`, the “hERG current change (%, negative = inhibition) at 10uM” value is on record as 0.332%.
Consider `CCCCOC(=O)c1ccc(NC(=O)C(=O)NCCN(C)C)cc1`, for which the “hERG current change (%, negative = inhibition) at 10uM” value is listed as -28.9%.
Regarding `CCOC(=O)c1c(NC(=O)c2ccco2)n(C2CCCCC2)c2nc3ccccc3nc12`, the “hERG current change (%, negative = inhibition) at 10uM” value was -35.6%.
In the case of `COc1ccc(CCNC(=O)CCCNC(=O)Cn2cnc3sc(C)c(C)c3c2=O)cc1OC`, the “hERG current change (%, negative = inhibition) at 10uM” value is given as 23.1%.
As for `CSc1ncc(Cl)c(C(=O)Nc2cc(C)ccc2C)n1`, the “hERG current change (%, negative = inhibition) at 10uM” value is 16.1%.
The same measure for `CCOC(=O)c1c(N)c(C#N)cn1-c1ccccc1`: -15.3%.
For `COc1ccc(OC)c(/C=N/c2oc(-c3ccco3)c(-c3ccco3)c2C#N)c1`, the “hERG current change (%, negative = inhibition) at 10uM” value was 11.8%.
Under `NNC(=O)c1ccc(COc2ccc3c(c2)CCC3)o1` stands 0.852%; under `CCCOc1ccc(CC2CCC(=O)NC2=O)cc1` (centres unmarked), -5.01%.
With `CC(=O)OC1COC(n2ccc3ccccc32)C(OC(C)=O)C1OC(C)=O` (centres unmarked), the “hERG current change (%, negative = inhibition) at 10uM” value is reported as 10.9%.
Under `O=C(O)/C=C/C(=O)Nc1ccc(SC(F)(F)C(F)(F)C(F)(F)F)cc1` stands 68.5%; under `S=c1[nH]nc(Nc2cccc(Cl)c2)s1`, 29.9%.
Under `CCc1cccc(NC(=O)c2cccc(S(=O)(=O)N3CCN(C)CC3)c2)c1` stands -53.9%; under `CN(CC1COc2ccccc2O1)C(=S)NC1CCCCC1` (centres unmarked), -17.7%.
As for `O=C(NCC(=O)N(c1cccnc1)C(C(=O)NC1CCCC1)c1cccs1)c1cccs1` (centres unmarked), the “hERG current change (%, negative = inhibition) at 10uM” value was found to be 17.3%.
As to `Cc1[nH]c2ccccc2c1C(=O)CN1CCCC1`, the “hERG current change (%, negative = inhibition) at 10uM” value was found to be 5.09%.
The same measure for `CCOC(=O)C1CCCN(CC(=O)c2ccc(F)cc2)C1.O=C(O)C(=O)O` (centres unmarked): -4.5%; for `O=c1c2ccccc2[nH]c(=S)n1-c1ccc2c(c1)OCCO2`: 14.8%.
With `COc1ccc(CNC(=O)C2CCCN2C)cc1OC` (centres unmarked), the “hERG current change (%, negative = inhibition) at 10uM” value is recorded as 4.85%.
On to `CCN(CC)CCOC(=O)C(O)(c1ccccc1)c1ccccc1.Cl`, for which the “hERG current change (%, negative = inhibition) at 10uM” value was -42.1%.
The same measure for `Cc1cc(=O)n2[nH]c(-c3cccc(Cl)c3)cc2n1`: -3.21%; for `COc1ccc(C2CC(c3cccs3)=NN2C(=O)CSC2=NN3CCCC(=O)N=C3S2)cc1` (centres unmarked): -24.5%.
Take `c1ccc(CCC2Cc3ccccc3N2)cc1` (centres unmarked): the “hERG current change (%, negative = inhibition) at 10uM” value is -0.839%.
As to `COc1cccc(SCC(=O)N2CCN(c3ccccc3)CC2)c1`, the “hERG current change (%, negative = inhibition) at 10uM” value is -1.23%.
